Laboratory results reported in ChEMBL document CHEMBL1156829.
In all, about 5,400 compounds were measured (“IFI”: median about 2, highest 2% from about 22 on). The list shows a part of the results.

Experiment: NOVARTIS: Inhibition Frequency Index (IFI) - the number of HTS assays where a compound showed > 50% inhibition/induction, expressed as a percentage of the number of assays in which the compound was tested.
Type: functional

SMILES | IFI
COc1cccc(NC(=O)c2ccc(NCCCN3CCC(C)CC3)c([N+](=O)[O-])c2)c1 | 0%
CCN1CCN(Cc2c(O)ccc3c(=O)c(Oc4cc(C)cc(C)c4)c(C(F)(F)F)oc23)CC1 | 3.49%
Cc1ccc(C(=O)N(C)CCCNc2ccnc3cc(Cl)ccc23)cc1 | 1.87%
CCC1=NN2C(=N)/C(=C/c3cn(CCOc4ccccc4C(C)CC)c4ccccc34)C(=O)N=C2S1 (stereo not given) | 0%
c1ccc(OCCOc2ccc(Nc3ccnc4cc5ccccc5cc34)cc2)cc1 | 6.15%
CCCCOc1ccc(N(C(C)=O)C2=C(N3CCCCC3)C(=O)c3ccccc3C2=O)cc1 | 6.76%
CCN(CC)Cc1cc(Nc2ccnc3cc(Cl)ccc23)ccc1O | 2.59%
N#Cc1c(N)nc2sc(C(=O)c3ccc(F)cc3)c(N)c2c1-c1ccccc1 | 4.17%
CCOC(=O)C1=C(C)NC2=C(C(=O)CC(c3ccc(Cl)cc3)C2)C1c1ccccc1Cl (stereo not given) | 3.23%
CN(C)CC(O)Cn1c2ccccc2c2ccccc21 (stereo not given) | 3.82%
Cc1c(C(=O)N2CCN(c3cccc(Cl)c3)CC2)sc2ncnc(N(C)c3ccccc3)c12 | 3.49%
OC(CNC1CCCCC1)Cn1c2ccccc2c2ccccc21 (stereo not given) | 2.13%
CC(C)NC(=O)CN(C)C1c2ccccc2CCc2ccccc21 | 4.59%
CN(C)CCN(C)Cc1cc(Br)cs1 | 5.83%
CCN(c1ccc(F)cc1)S(=O)(=O)c1ccc2[nH]cc(C(=O)NCCC(C)C)c(=O)c2c1 | 0%
CC(C)CCNC(=O)C1CSC(c2ccc(F)cc2)N1C(=O)c1ccc(Cl)cc1Cl (stereo not given) | 3.23%
CC(C)CN(CC(=O)Nc1cc(C(C)(C)C)nn1-c1ccccc1)C(=O)COc1ccccc1 | 1.85%
NNC(=O)C1CCCN1S(=O)(=O)c1ccc(Cl)cc1 (stereo not given) | 1.05%
O=[N+]([O-])c1ccc(Nc2nc(NN=Cc3ccccc3I)nc(Nc3ccccc3)n2)cc1 | 2.63%
N=C(N)NN=Cc1cc(Cl)ccc1O | 3.17%
CCN(CC)CCN1C(=O)c2ccc3c4c(ccc(c24)C1=O)C(=O)N(CCN(CC)CC)C3=O | 15.2%
Cc1n(N)c2ccccc2[n+]1CC(=O)c1ccccc1 | 1.56%
O=C(Cn1c2ccccc2c(=O)c2cc([N+](=O)[O-])ccc21)Nc1ccc(F)c(Cl)c1 | 2.41%
CC[n+]1cccc2ccc3cccnc3c21 | 7.69%
O=C1N(c2ccccc2)C[C@@H]2C[C@@H](c3ccc4nonc4c3)N3CCC[C@@]123 | 7.69%

SMILES | IFI
CC(C)CC(NC(=O)/C(=C\c1ccco1)NC(=O)c1ccccc1)C(=O)OCc1ccccc1 (stereo not given) | 0%
Cc1nc(N)sc1C(=O)NN=Cc1cccc(Br)c1 | 0%
CCOC(=O)C(=CNc1ccccc1[N+](=O)[O-])C(=O)OCC | 0%
O=C1CC(C(=O)N2CCC(c3nc(-c4cccnc4)ncc3-c3ccccc3)CC2)c2ccccc21 (stereo not given) | 2.61%
Cc1sc2sc(-c3ccccc3)c(N)[n+]2c1C | 0%
O=C(Cn1c2ccccc2c(=O)c2ccc(Cl)cc21)Nc1cccc(Cl)c1 | 4.82%
COc1ccccc1N1CCN(c2c3c(nc4nncn24)CCC3)CC1 | 0%
Brc1ccc(-c2cn3c([n+]2Cc2ccccc2)SCCC3)cc1 | 0%
c1ccc2c(c1)[nH]c1c(NCCN3CCCCC3)ncnc12 | 3.85%
Cc1ccc(-c2c3c4n(c(-c5ccc(Cl)cc5)cn4c2C(=O)Nc2ccccc2Cl)CCCC3)cc1 | 6.06%
CCOc1ccc(N2C(=O)C3C4CC(C(Br)C4Br)C3C2=O)cc1 (stereo not given) | 0%
CCOC(=O)C1=C(C)NC2=C(C(=O)CC(c3ccc(Cl)cc3)C2)C1c1ccc(Cl)cc1 (stereo not given) | 3.53%
c1ccc(-c2ccc(CNc3ccc4cn[nH]c4c3)cc2)cc1 | 15.4%
COc1cc(OC)c(NC(=O)C2c3ccccc3C(=O)N(CC(C)C)C2c2cccs2)cc1Cl (stereo not given) | 6.06%
O=C(Cn1c2ccccc2c(=O)c2ccc(Cl)cc21)Nc1ccc(C(F)(F)F)cc1 | 3.57%
CC1CC(N(C(=O)c2ccc(Cl)cc2Cl)c2ccccc2)c2ccccc2N1C(=O)c1ccc(Cl)cc1 (stereo not given) | 2.44%
CCOc1ccc2[nH]c3c(NCCCN(C)C)ncnc3c2c1 | 3.33%
CC(=O)NCCc1nc2ccccc2n1Cc1ccc(C(C)C)cc1 | 0%
CCOC(=O)C1=C(C)N=c2sc(=Cc3cc(Br)ccc3O)c(=O)n2C1c1ccccc1 (stereo not given) | 1.18%
O=C(/C=C/c1c[nH]cn1)N1CCC(n2c(CC3CCCC3)nc3cccnc32)CC1 | 0.971%
CC(=O)N(C1=C(N2CCOCC2)C(=O)c2ccccc2C1=O)c1cccc(Cl)c1 | 0%
Cc1ccnc(Nc2nc(-c3c(C)nc4sccn34)cs2)c1 | 4.22%
O=C(Cc1ccccc1)Nc1ccc(C(=O)Nc2ccc(-c3nc4ccc(NC(=O)c5ccc(NC(=O)Cc6ccccc6)cc5)c(Cl)c4[nH]3)cc2)cc1 | 7.58%
CSc1cccc(NC(=O)C2C3C=CC4(O3)C2C(=O)N(CCN2CCCCC2)C4C(=O)NC2CCCC(C)C2C)c1 (stereo not given) | 0%
O=[N+]([O-])c1cc(Cl)c(N2CCOCC2)cc1N1CCOCC1 | 1.44%
